According to paper PMC9911399, “Two distinct binding modes provide the RNA-binding protein RbFox with extraordinary sequence specificity”:
Where a chain is given by its changes, count along the chain named. Some of the results follow.

T1: RBFOX1 RRM (Homo sapiens, UniProt Q9NWB1 109-208)
T1 sequence: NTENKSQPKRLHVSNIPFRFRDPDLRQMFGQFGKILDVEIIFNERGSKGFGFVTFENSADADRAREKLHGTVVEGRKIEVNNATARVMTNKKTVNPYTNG

B1: CUCCUUA (DNA:RNA)
RNA: GGGAGACCGGAAUUCAGAUUGUCCCUCCUUAUUAAAUCCCGUCGUAGCCACCA
DNA 1: CAATCTGAATTCCGGTCTCCC
DNA 2: TGGTGGCTACGACGGGATT
B2: GUCACUC (DNA:RNA)
RNA: B1 RNA with C25G, C28A, U29C, A31C
DNA 1: CAATCTGAATTCCGGTCTCCC
DNA 2: TGGTGGCTACGACGGGATT
B3: ACUCAGU (DNA:RNA)
RNA: B1 RNA with C25A, U26C, C27U, U29A, U30G, A31U
DNA 1: CAATCTGAATTCCGGTCTCCC
DNA 2: TGGTGGCTACGACGGGATT
B4: AUGCCAU (DNA:RNA)
RNA: B1 RNA with C25A, C27G, U29C, U30A, A31U
DNA 1: CAATCTGAATTCCGGTCTCCC
DNA 2: TGGTGGCTACGACGGGATT
B5: UCACUUU (DNA:RNA)
RNA: B1 RNA with C25U, U26C, C27A, A31U
DNA 1: CAATCTGAATTCCGGTCTCCC
DNA 2: TGGTGGCTACGACGGGATT
B6: GUCGCGG (DNA:RNA)
RNA: B1 RNA with C25G, C28G, U29C, U30G, A31G
DNA 1: CAATCTGAATTCCGGTCTCCC
DNA 2: TGGTGGCTACGACGGGATT
B7: CAUAUCG (DNA:RNA)
RNA: B1 RNA with U26A, C27U, C28A, U30C, A31G
DNA 1: CAATCTGAATTCCGGTCTCCC
DNA 2: TGGTGGCTACGACGGGATT
B8: GAGGGAA (DNA:RNA)
RNA: B1 RNA with C25G, U26A, C27G, C28G, U29G, U30A
DNA 1: CAATCTGAATTCCGGTCTCCC
DNA 2: TGGTGGCTACGACGGGATT
B9: UUGCGGC (DNA:RNA)
RNA: B1 RNA with C25U, C27G, U29G, U30G, A31C
DNA 1: CAATCTGAATTCCGGTCTCCC
DNA 2: TGGTGGCTACGACGGGATT
B10: UGAGGGG (DNA:RNA)
RNA: GGGAGACCGGAAUUCAGAUUGUCCUGAGGGGUUAAAUCCCGUCGUAGCCACCA
DNA 1: CAATCTGAATTCCGGTCTCCC
DNA 2: TGGTGGCTACGACGGGATT
B11: GCUCUAC (DNA:RNA)
RNA: B1 RNA with C25G, U26C, C27U, U30A, A31C
DNA 1: CAATCTGAATTCCGGTCTCCC
DNA 2: TGGTGGCTACGACGGGATT
B12: UAGUACG (DNA:RNA)
RNA: B10 RNA with G26A, A27G, G28U, G29A, G30C
DNA 1: CAATCTGAATTCCGGTCTCCC
DNA 2: TGGTGGCTACGACGGGATT
B13: GGGGCGG (DNA:RNA)
RNA: B10 RNA with U25G, A27G, G29C
DNA 1: CAATCTGAATTCCGGTCTCCC
DNA 2: TGGTGGCTACGACGGGATT
B14: UUUAGCC (DNA:RNA)
RNA: B10 RNA with G26U, A27U, G28A, G30C, G31C
DNA 1: CAATCTGAATTCCGGTCTCCC
DNA 2: TGGTGGCTACGACGGGATT
B15: CAAGUGU (DNA:RNA)
RNA: B10 RNA with U25C, G26A, G29U, G31U
DNA 1: CAATCTGAATTCCGGTCTCCC
DNA 2: TGGTGGCTACGACGGGATT
B16: GCUCGAG (DNA:RNA)
RNA: B10 RNA with U25G, G26C, A27U, G28C, G30A
DNA 1: CAATCTGAATTCCGGTCTCCC
DNA 2: TGGTGGCTACGACGGGATT
B17: UGACGAG (DNA:RNA)
RNA: B10 RNA with G28C, G30A
DNA 1: CAATCTGAATTCCGGTCTCCC
DNA 2: TGGTGGCTACGACGGGATT
B18: AGACCGC (DNA:RNA)
RNA: B10 RNA with U25A, G28C, G29C, G31C
DNA 1: CAATCTGAATTCCGGTCTCCC
DNA 2: TGGTGGCTACGACGGGATT
B19: UAUGGGG (DNA:RNA)
RNA: B10 RNA with G26A, A27U
DNA 1: CAATCTGAATTCCGGTCTCCC
DNA 2: TGGTGGCTACGACGGGATT
B20: UUGUCGA (DNA:RNA)
RNA: B1 RNA with C25U, C27G, C28U, U29C, U30G
DNA 1: CAATCTGAATTCCGGTCTCCC
DNA 2: TGGTGGCTACGACGGGATT

Target: T1, RBFOX1 RRM
Test: EMSA; HiTS-Eq, 1 nM pool, 10 min; buffer printed only for the single-RNA assays: 10 mM Tris pH 7.5, 150 mM NaCl, 3.4 mM EDTA, 0.001% NP-40, 30 C
Settings: tags: His6 N-terminal (pET28a); label: 5' 32P
Summary of the method: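 Purified RbFox RRM (wild type or mutant) was equilibrated for 10 min in 50 µL with 1 nM of a 5′-radiolabelled pool of RNA with 7 randomized nucleotides, its flanks annealed to DNA oligonucleotides, across increasing protein concentrations. Free RNA was separated by 8% native PAGE, excised, reverse-transcribed, PCR-barcoded and sequenced on an Illumina HiSeq 2500. Relative association constants came from read-count changes of each variant against the control reaction, normalised to the cognate motif.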

Binder | binding signal
B1 | 0.00211 KA relative to UGCAUGU
B2 | 0.00729 KA relative to UGCAUGU
B3 | 0.00847 KA relative to UGCAUGU
B4 | 0.00302 KA relative to UGCAUGU
B5 | 0.00698 KA relative to UGCAUGU
B6 | 0.0154 KA relative to UGCAUGU
B7 | 0.00257 KA relative to UGCAUGU
B8 | 0.0111 KA relative to UGCAUGU
B9 | 0.0107 KA relative to UGCAUGU
B10 | 0.00637 KA relative to UGCAUGU
B11 | 0.00577 KA relative to UGCAUGU
B12 | 0.0135 KA relative to UGCAUGU
B13 | 0.028 KA relative to UGCAUGU
B14 | 0.00739 KA relative to UGCAUGU
B15 | 0.0111 KA relative to UGCAUGU
B16 | 0.0268 KA relative to UGCAUGU
B17 | 0.0244 KA relative to UGCAUGU
B18 | 0.00757 KA relative to UGCAUGU
B19 | 0.00586 KA relative to UGCAUGU
B20 | 0.0246 KA relative to UGCAUGU
